Assay results as given in ChEMBL document CHEMBL4888484, “Replenishing the malaria drug discovery pipeline: Screening and hit evaluation of the MMV Hit Generation Library 1 (HGL1) against asexual blood stage Plasmodium falciparum ,using a nano luciferase reporter read-out” (2022).
About 540 (0.36%) of roughly 150,000 compounds showed an effect of 50% or more. The list shows a part of the results.

test system: Plasmodium falciparum; experiment: Primary screen in NF54 nanoGlo assay, in single point, at 2uM, 72h; a lower Z score goes with more inhibition; assay type: functional, Erythrocyte; conditions: timepoint 72 hour

Structure (SMILES) | % Inhibition [%] | Z score
O=c1c2c(c(Br)cn1Cc1ccc(F)cn1)CCCC2 | -3 | 0.42
COc1ccc(C(=O)O[C@H]2CCOC2=O)cn1 | 4 | -0.48
N#Cc1c(N)nc2c(c1-c1c[nH]c(CC3CCCC3)n1)COCC2 | 13 | -1.91
Cc1noc([C@H](C)OC(=O)c2cc(C(C)(C)C)on2)n1 | -8 | 0.96
COc1ccc(CCN(CCc2nc(-c3ccc(N(C)C)cc3)no2)C(=O)C2CCCC2)cc1OC | -2 | 0.23
C[C@@H]1CN(C(=O)c2nc3ccc(Cl)cn3c2CN2C[C@H]3CC[C@H]2C3)C[C@H](C)O1 | 15 | -1.98
CCOc1ccc2c(c1)C=C(C(=O)NCCc1csc(C)n1)CO2 | 1 | -0.08
CC(O)C(C)S(=O)(=O)C(C)C(=O)N1CCCCC1 (stereo not drawn) | -10 | 1.49
CCCC1(Cn2nnnc2N2CCCN(C(C)=O)CC2)CCC1 | -6 | 0.72
NC(=O)CN(CCC1CCCCC1)C(=O)c1cncnc1 | -7 | 0.88
COc1cn(CC(=O)NC2CCN(Cc3ccccc3)CC2)c(CN2CCOCC2)cc1=O | 7 | -0.83
Cc1ccc(C)c([C@H]2CC(=O)Nc3cc(N4CCCC4=O)ccc32)c1 | -11 | 1.25
O=C(Nc1ccc(Cl)cc1)c1cc2ccccc2cc1NS(=O)(=O)c1cc(Cl)ccc1Cl | 12 | -1.76
Cc1ccc(-c2cn[nH]c2[C@H]2CCCN(C(=O)c3cnc4ccccn34)C2)cc1 | -7 | 1.4
O=C(C[C@@H]1NC(=O)c2ccccc2NC1=O)Nc1ccccc1 | 1 | -0.07
CCCCC[C@@H](C)NC(=O)N(C)Cc1nc(C)c[nH]1 | -5 | 0.7
CCC[C@@]1(C2CCN(C(=O)CCc3cccs3)CC2)NC(=O)N(CCc2ccccn2)C1=O | -8 | 1.01
CC12CC(c3ccccc3O1)N(C(=O)c1ccc(Cl)cc1)C(=O)N2c1ccc(F)cc1F (stereo not drawn) | 7 | -0.78
Cc1cc(CN2CCN(c3nnc(C)c(C)c3C#N)CC2)on1 | 0 | -0.07
CC1CCN(CCCOc2ccc3c(c2)OCO3)CC1 | 45 | -3.83
O=C(Nc1cccc(C2OC(=O)N(Cc3ccc(F)cc3)C2C(=O)Nc2ccccc2)c1)c1ccccc1 (stereo not drawn) | -3 | 0.33

Structure (SMILES) | % Inhibition [%] | Z score
COCc1cc(=O)n(CC(=O)N[C@@H](C)c2ccc(OC)cc2)c(N2CCOCC2)n1 | 26 | -3.97
NC(=O)c1nc(CNC(=O)N2CCCCCC2)no1 | -20 | 1.8
O=C(NCC1CC1)C1CCN(c2ncnc3c2oc2ccccc23)CC1 | -1 | 0.17
COCCC(=O)Nc1c(C(=O)OC)n(CCc2c[nH]c3ccccc23)c2ncc(NC3CCN(C(C)C)CC3)cc12 | 0 | -0.01
COC(=O)c1n[nH]c2c1CN(C(=O)Nc1ccc3c(c1)OCCO3)CC2 | 0 | 0.09
C[C@@H](CNC(=O)CCC1CCCC1)NC(=O)CCC1CCCC1 | 11 | -1.33
O=C1Nc2cc(Br)ccc2C12CC2 | 0 | -0.03
O=C1NC2(CCCC2)C(=O)N1C[C@H](O)COc1ccc(F)cc1 | -7 | 0.75
O=C(O)CCN1CCN(Cc2ccccc2)C2(CCCCC2)C1 | 13 | -2.32
CC[C@H](C)NC(=O)c1cnn(-c2cc(-c3nc(C(C)C)no3)ccn2)c1C | -5 | 0.86
Cc1nc(COC(=O)[C@H]2CC(=O)N(c3ccccc3)C2)no1 | -9 | 1.44
O=C(NCc1nc(C(F)(F)F)no1)N[C@H]1Cc2cncn2C1 | -1 | 0.21
CN1CCC(CNC(=O)C2CC23CCOc2ccccc23)(N2CCOCC2)CC1 (stereo not drawn) | 2 | -0.25
Nc1nccnc1C(=O)N1CC2CCCC2C1 (stereo not drawn) | -4 | 0.55
CCn1nccc1C(=O)N1CC[C@H](CC(=O)NCc2ccncc2)C1 | 29 | -4.16
O=S(=O)(Nc1c(F)cccc1F)c1ccc2c(c1)OCCO2 | -7 | 1.07
Cc1cc(C(=O)NC[C@H](C)CO)c(C)cc1Br | -8 | 1.27
Cc1nonc1NS(=O)(=O)Cc1ccc(Br)cc1 | 3 | -0.42
Cc1ccc2c(c1)nc1c3ccc4c5c(ccc(c(=O)n21)c53)C(=O)N(c1ccccc1)C4=O | 3 | -0.51
C=C(C)Cn1c(-c2cnccn2)nnc1N1CCC(C)(COC)CC1 | 3 | -0.47
Cc1[nH]c(C)c(S(=O)(=O)Nc2ccccc2)c1-c1nnc(C2CC2)o1 | -13 | 2.5

Structure (SMILES) | % Inhibition [%] | Z score
COc1cccc(C(=O)N2CCN(C(=O)CCOc3ccccc3)CC2)c1 | 21 | -2.72
CC(C)Cc1cc(CNC(=O)c2cccc(-c3cc(N)ncn3)c2)on1 | -2 | 0.34
Cc1ccnn1CC(=O)N1CCC[C@@]2(CCC(=O)N(CCc3c[nH]cn3)C2)C1 | -6 | 0.88
CCc1ccccc1NC(=O)CN1CCN(C(=O)CN2CCOCC2)CC1 | 2 | -0.19
CC(=O)Nc1ccc(NC(=O)Cn2c(=O)c(N(C)C(C)=O)nc3ccccc32)cc1 | -8 | 1.22
Cc1cc(CN2CCO[C@@H](CN(C)CC(=O)O)C2)cc2cccnc12 | 5 | -0.61
COC1(CNC(=O)[C@H]2CCc3cncn3C2)CCCCC1 | -9 | 1.4
COc1ccc(-n2ncc(Oc3ccc4c(c3)CCC4)c(Nc3cccc(C(=O)NCc4ccc(F)cc4)c3)c2=O)cc1 | 2 | -0.27
O=C(C[C@H]1Cc2ccccc2C2(CCN(Cc3ccccc3)CC2)O1)NC1CCCC1 | 10 | -1.39
CCOCc1nc(-c2ccc(=O)[nH]c2)n(Cc2c(F)cccc2Cl)n1 | -8 | 1.22
CC(C)=CCN1CCC[C@@](O)(CNC(=O)Cc2ccccc2)CC1 | -10 | 1.65
CC(C)[C@H](CNC(=O)c1ccc(NC(=O)c2cc(F)cc(F)c2)cc1O)c1cccnc1 | -13 | 2.09
Cc1ccc(-n2nccc2NC(=O)[C@@H]2CCCCO2)nn1 | -1 | 0.15
Cc1cc(F)ccc1C1CCN(C(=O)c2cn(C)nn2)CC1 | 2 | -0.27
O=C(Cc1ccc(Cl)cc1)N1CC[C@@]2(CO)CN(Cc3ccccc3)C[C@H]2C1 | 1 | -0.08
Cc1c(NC(=O)c2ccco2)cccc1C(=O)N1CCn2cncc2C1 | -7 | 0.94
OCCn1ncc2c1CN(c1nnc(C3CCC3)o1)C2 | -21 | 2.06
COc1cccc(NC2=NC(N)=NC3(CCCC3)N2)c1 | 3 | -0.66
Cc1ccc(C)c(N2CCN(C(=O)c3cc4n(n3)CCCN(Cc3cccc(F)c3)C4=O)CC2)c1 | -9 | 1.66
CCC(CC)N(C)C(=O)c1ccc2c(c1)COCO2 | 2 | -0.35
Cc1ccc(-c2nc3cccnc3o2)cc1NC(=O)c1cccc(Cl)c1Cl | -7 | 1.26

Structure (SMILES) | % Inhibition [%] | Z score
O=S(=O)(Nc1cccc2c1OCCO2)c1ccc2c(c1)OCCO2 | -6 | 0.94
COc1ccc(N([C@H]2CCS(=O)(=O)C2)S(=O)(=O)c2c(C)cc(C)cc2C)cc1 | -18 | 2.46
CN(C)c1ncc(Br)cc1C(=O)N(C)c1nccs1 | -10 | 1.26
Cc1cc(NC(=O)C2CCN(c3cc(C(F)(F)F)ncn3)CC2)ccc1Br | 2 | -0.21
Cc1n[nH]c(CNc2cnccn2)c1C | -11 | 1.88
CCCn1ccnc1CNc1cc(CC)ncn1 | -12 | 2.31
COc1ccc(Cn2nc(C)n(C)c2=O)cc1 | -14 | 1.61
O=C(Cc1ccc2c(c1)OCO2)N1CC[C@H](Oc2cnc3ccccc3n2)C1 | 10 | -1.94
Nc1cccc(C(=O)N2CCC(CNC(=O)c3ccco3)CC2)n1 | -1 | 0.2
Cc1ncsc1CN1CCCC1CN1CCCC1CO (stereo not drawn) | -3 | 0.39
O=C(c1scc2c1OCCO2)N1CCOC[C@@H](O)C1 | -18 | 1.68
O=C(N1CC(O)C1)C1(c2cccs2)CCCCC1 | 1 | -0.09
CCOc1cccc(Cn2nnc3c(cnn3C)c2=O)n1 | -14 | 1.91
CC[C@@H](CO)N(CC=C(C)C)Cc1cccnc1 | -22 | 2.05
Cc1nnc(NCc2cc(C(F)F)on2)nc1C | 5 | -1
CCc1ccc(-c2cc3c(=O)n(CC(=O)N4CCOCC4)ncn3n2)cc1 | -23 | 2.03
COCCN(Cc1ccc(OC)c(OS(=O)(=O)c2ccc(OC)cc2)c1)C(=O)c1cccc(F)c1 | 3 | -0.59
Fc1ccc([C@@H]2CCN2CCn2cc(Cl)cn2)cc1 | 12 | -1.59
CNC(=O)NC(=O)[C@H](C)N(C)Cc1cccc(C#N)c1 | -6 | 0.86
CN(C)c1nnc(CNS(=O)(=O)c2ccc(F)c(C(F)F)c2)[nH]1 | -2 | 0.41
Cc1nscc1C(=O)N1CC(c2ccccc2)C2COCCC21 (stereo not drawn) | 6 | -0.57
